# Measurements taken from the supplement of paper PMC4604168 (melanoma cell lines).
# Some of the results follow. Single values are uncertain, as repeats are few or missing.
# Key:
# Experiment in all cases: cell count relative to DMSO control; melanoma cells; higher = more viable cells
# Details in all cases: library dose: low library concentration; 72 h
# [1] = system: WM115
# [2] = system: WM1716
# [3] = system: WM1745
# [4] = system: WM3526
# [5] = system: WM3619
# [6] = system: WM451Lu
# 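Also: cell number obtained by counting DAPI-stained nuclei in high-throughput microscope images with image analysis software, screen run in 1,536-well plates.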
Compound,cell count [1] [%],cell count [2] [%],cell count [3] [%],cell count [4] [%],cell count [5] [%],cell count [6] [%]
"O=c1[nH]nc(Sc2ncc([N+](=O)[O-])s2)n1-c1ccc2c(c1)OCCO2 + O=C(Nc1ccccc1)c1cc([N+](=O)[O-])ccc1Cl [GW9662] (first compound 0.2 µM, partner dose 2 µM)",84.9,88,96.9,88.3,95.4,99.3
"COc1cc(Nc2ncc(F)c(Nc3ccc4c(n3)NC(=O)C(C)(C)O4)n2)cc(OC)c1OC [Tamatinib] + CCN(CC)CCCCNc1ncc2cc(-c3cc(OC)cc(OC)c3)c(NC(=O)NC(C)(C)C)nc2n1 [PD173074] (first compound 0.4 µM, partner dose 0.1 µM)",97.3,91.7,63.7,79.4,81.3,124
"O=c1[nH]nc(Sc2ncc([N+](=O)[O-])s2)n1-c1ccc2c(c1)OCCO2 + OCCn1cc(-c2cnc3nnn(Cc4ccc5ncccc5c4)c3n2)cn1 [PF04217903] (first compound 0.2 µM, partner dose 1 µM)",99.6,111,98.3,86.6,92.1,93
"O=c1[nH]nc(Sc2ncc([N+](=O)[O-])s2)n1-c1ccc2c(c1)OCCO2 + CO[C@@H]1[C@H](N(C)C(=O)c2ccccc2)C[C@H]2O[C@]1(C)n1c3ccccc3c3c4c(c5c6ccccc6n2c5c31)C(=O)NC4 [Midostaurin] (first compound 0.2 µM, partner dose 0.08 µM)",98.6,83,93.3,92.7,102,103
"Cn1cncc1[C@@](N)(c1ccc(Cl)cc1)c1ccc2c(c1)c(-c1cccc(Cl)c1)cc(=O)n2C [tipifarnib] + O=C(O)C(=O)Nc1sc2c(c1C(=O)O)CCNC2 [TCS401] (first compound 0.01 µM, partner dose 1.66667 µM)",99.7,79.3,117,108,112,102
"COc1cc(Nc2ncc(F)c(Nc3ccc4c(n3)NC(=O)C(C)(C)O4)n2)cc(OC)c1OC [Tamatinib] + C=CCn1c(=O)c2cnc(Nc3ccc(N4CCN(C)CC4)cc3)nc2n1-c1cccc(C(C)(C)O)n1 [MK1775] (first compound 0.4 µM, partner dose 0.02 µM)",83.6,83,74.3,84,81.6,115
"O=c1[nH]nc(Sc2ncc([N+](=O)[O-])s2)n1-c1ccc2c(c1)OCCO2 + COc1ccc(COc2ccc(Cc3cnc(N)nc3N)cc2OC)cc1 [GW2580] (first compound 0.2 µM, partner dose 1 µM)",100,96.8,97,117,94.5,75.2
"O=C(O)c1ccc(-c2c[nH]c3ncc(-c4ccccc4)cc23)cc1C1CCCC1 + CC(C)CCN1c2nc(Nc3cc(F)c(O)c(F)c3)ncc2N(C)C(=O)C1C [BID1870] (first compound 0.16 µM, partner dose 0.2 µM)",92.9,95.6,95.3,94.6,106,107
"O=c1[nH]nc(Sc2ncc([N+](=O)[O-])s2)n1-c1ccc2c(c1)OCCO2 + N#Cc1c(O)c2c(-c3ccc(-c4ccccc4O)cc3)csc2[nH]c1=O [A769662] (first compound 0.2 µM, partner dose 2 µM)",107,92.8,93.4,87.8,102,116
"COc1cc(Nc2ncc(F)c(Nc3ccc4c(n3)NC(=O)C(C)(C)O4)n2)cc(OC)c1OC [Tamatinib] + NCC(=O)Nc1ccc(-n2nc(C(F)(F)F)cc2-c2ccc3c(ccc4ccccc43)c2)cc1 [OSU03012] (first compound 0.4 µM, partner dose 1 µM)",93.2,90.9,73.1,49.8,85.6,90.5
"O=C(Nc1cccc(Cl)c1)Nc1ncc(CCNc2ncnc3ccsc23)s1 + c1cc(-c2cnn3cc(-c4ccc(OCCN5CCCCC5)cc4)cnc23)ccn1 [Dorsomorphin] (first compound 0.0008 µM, partner dose 0.4 µM)",76.7,113,91.9,76.4,102,106
"C[C@@H]1CCN(C(=O)CC#N)C[C@@H]1N(C)c1ncnc2[nH]ccc12 + CN(NC(=O)CC(=O)NN(C)C(=S)c1ccccc1)C(=S)c1ccccc1 [STA4783] (first compound 1 µM, partner dose 0.006 µM)",88.1,88.6,44.2,95,84,104
"Cn1cncc1[C@@](N)(c1ccc(Cl)cc1)c1ccc2c(c1)c(-c1cccc(Cl)c1)cc(=O)n2C [tipifarnib] + CCN(CC)CCCCNc1ncc2cc(-c3cc(OC)cc(OC)c3)c(NC(=O)NC(C)(C)C)nc2n1 [PD173074] (first compound 0.01 µM, partner dose 0.1 µM)",96.1,84.9,97,92.1,103,95.4
"O=C(Nc1cccc(Cl)c1)Nc1ncc(CCNc2ncnc3ccsc23)s1 + CCc1ccc(CCOc2ccc(CC3SC(=O)NC3=O)cc2)nc1 [pioglitazone] (first compound 0.0008 µM, partner dose 2 µM)",69.8,93.6,91.1,101,114,91.6
"O=C(O)c1ccc(-c2c[nH]c3ncc(-c4ccccc4)cc23)cc1C1CCCC1 + CCc1ccc(CCOc2ccc(CC3SC(=O)NC3=O)cc2)nc1 [pioglitazone] (first compound 0.16 µM, partner dose 2 µM)",98.9,100,70.1,86.5,103,91.6
"C[C@@H]1CCN(C(=O)CC#N)C[C@@H]1N(C)c1ncnc2[nH]ccc12 + COc1ccc2c(c1)CCC1C2CCC2(C)C(NCCCCCCN3C(=O)C=CC3=O)CCC12 [U73122] (first compound 1 µM, partner dose 0.4 µM)",91.1,86.9,67.2,106,113,51.9
"COc1cc(Nc2ncc(F)c(Nc3ccc4c(n3)NC(=O)C(C)(C)O4)n2)cc(OC)c1OC [Tamatinib] + NC(=O)Nc1cc(-c2cccc(F)c2)sc1C(=O)N[C@H]1CCCNC1 [AZD7762] (first compound 0.4 µM, partner dose 0.02 µM)",67.1,86.3,60.5,62.2,62.5,82.8
"O=c1[nH]nc(Sc2ncc([N+](=O)[O-])s2)n1-c1ccc2c(c1)OCCO2 + Cn1cc(/C=C2\C(=O)Nc3cccnc32)c2ccccc21 [GW441756] (first compound 0.2 µM, partner dose 0.4 µM)",106,117,94.2,97.4,88.9,96.6
"Cn1cncc1[C@@](N)(c1ccc(Cl)cc1)c1ccc2c(c1)c(-c1cccc(Cl)c1)cc(=O)n2C [tipifarnib] + CN(NC(=O)CC(=O)NN(C)C(=S)c1ccccc1)C(=S)c1ccccc1 [STA4783] (first compound 0.01 µM, partner dose 0.006 µM)",67.2,44.2,19.3,86.7,40.7,91.9
"CC1(C)NC(=O)N(c2ccc([N+](=O)[O-])c(C(F)(F)F)c2)C1=O [nilutamide] + O=C1NC(=O)/C(=C/c2ccc(-c3ccc(F)cc3O)o2)S1 [AS252424] (first compound 1 µM, partner dose 1 µM)",97.8,102,90.6,113,103,103
"CC1(C)NC(=O)N(c2ccc([N+](=O)[O-])c(C(F)(F)F)c2)C1=O [nilutamide] + CCCCCCCCCCCC1=C(O)C(=O)C=C(O)C1=O [Embelin] (first compound 1 µM, partner dose 1.2 µM)",98.1,111,104,110,111,114
"O=C(Nc1cccc(Cl)c1)Nc1ncc(CCNc2ncnc3ccsc23)s1 + NCC(=O)Nc1ccc(-n2nc(C(F)(F)F)cc2-c2ccc3c(ccc4ccccc43)c2)cc1 [OSU03012] (first compound 0.0008 µM, partner dose 1 µM)",60.8,101,80.6,61.3,83.2,51.7
"COc1cc(Nc2ncc(F)c(Nc3ccc4c(n3)NC(=O)C(C)(C)O4)n2)cc(OC)c1OC [Tamatinib] + Oc1cc(-c2nc(-c3ccccc3)[nH]c2-c2ccncc2)ccc1Cl [L779450] (first compound 0.4 µM, partner dose 0.2 µM)",65.4,101,47.2,58.4,108,97
"O=c1[nH]nc(Sc2ncc([N+](=O)[O-])s2)n1-c1ccc2c(c1)OCCO2 + O=C(O)c1ccc(-c2c[nH]c3ncc(-c4ccccc4)cc23)cc1C1CCCC1 [GSK650394] (first compound 0.2 µM, partner dose 0.16 µM)",93.3,111,95.1,101,84.5,100
"COc1cc(Nc2ncc(F)c(Nc3ccc4c(n3)NC(=O)C(C)(C)O4)n2)cc(OC)c1OC [Tamatinib] + CC(C)(C)c1cnc(CSc2cnc(NC(=O)C3CCNCC3)s2)o1 [SNS-032] (first compound 0.4 µM, partner dose 0.01 µM)",89.9,91.8,72.6,70.3,116,110
"O=c1[nH]nc(Sc2ncc([N+](=O)[O-])s2)n1-c1ccc2c(c1)OCCO2 + Cn1sc(=O)n(Cc2ccccc2)c1=O [TDZD-8] (first compound 0.2 µM, partner dose 0.4 µM)",89.3,82.3,91.5,115,84.6,98
